# Source: PMC9911399, “Two distinct binding modes provide the RNA-binding protein RbFox with extraordinary sequence specificity”
# Where a chain is given by its changes, count along the chain named. The list shows a part of the results.
# T1: RBFOX1 RRM (Homo sapiens, UniProt Q9NWB1 109-208)
# T1 sequence: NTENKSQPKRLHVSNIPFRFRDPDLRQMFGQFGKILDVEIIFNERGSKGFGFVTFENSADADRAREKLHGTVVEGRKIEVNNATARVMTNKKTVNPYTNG
# B1: CGACCCA (DNA:RNA)
# RNA: GGGAGACCGGAAUUCAGAUUGUCCCGACCCAUUAAAUCCCGUCGUAGCCACCA
# DNA 1: CAATCTGAATTCCGGTCTCCC
# DNA 2: TGGTGGCTACGACGGGATT
# B2: AUGAGCC (DNA:RNA)
# RNA: B1 RNA with C25A, G26U, A27G, C28A, C29G, A31C
# DNA 1: CAATCTGAATTCCGGTCTCCC
# DNA 2: TGGTGGCTACGACGGGATT
# B3: UGAAAGC (DNA:RNA)
# RNA: B1 RNA with C25U, C28A, C29A, C30G, A31C
# DNA 1: CAATCTGAATTCCGGTCTCCC
# DNA 2: TGGTGGCTACGACGGGATT
# B4: CCAGUAU (DNA:RNA)
# RNA: B1 RNA with G26C, C28G, C29U, C30A, A31U
# DNA 1: CAATCTGAATTCCGGTCTCCC
# DNA 2: TGGTGGCTACGACGGGATT
# B5: AGUUUCG (DNA:RNA)
# RNA: B1 RNA with C25A, A27U, C28U, C29U, A31G
# DNA 1: CAATCTGAATTCCGGTCTCCC
# DNA 2: TGGTGGCTACGACGGGATT
# B6: GCAGUUU (DNA:RNA)
# RNA: B1 RNA with C25G, G26C, C28G, C29U, C30U, A31U
# DNA 1: CAATCTGAATTCCGGTCTCCC
# DNA 2: TGGTGGCTACGACGGGATT
# B7: AAGGGUA (DNA:RNA)
# RNA: B1 RNA with C25A, G26A, A27G, C28G, C29G, C30U
# DNA 1: CAATCTGAATTCCGGTCTCCC
# DNA 2: TGGTGGCTACGACGGGATT
# B8: GCUUCAA (DNA:RNA)
# RNA: B1 RNA with C25G, G26C, A27U, C28U, C30A
# DNA 1: CAATCTGAATTCCGGTCTCCC
# DNA 2: TGGTGGCTACGACGGGATT
# B9: UACGAUG (DNA:RNA)
# RNA: GGGAGACCGGAAUUCAGAUUGUCCUACGAUGUUAAAUCCCGUCGUAGCCACCA
# DNA 1: CAATCTGAATTCCGGTCTCCC
# DNA 2: TGGTGGCTACGACGGGATT
# B10: GUAUAGA (DNA:RNA)
# RNA: B1 RNA with C25G, G26U, C28U, C29A, C30G
# DNA 1: CAATCTGAATTCCGGTCTCCC
# DNA 2: TGGTGGCTACGACGGGATT
# B11: AUGGUCG (DNA:RNA)
# RNA: B9 RNA with U25A, A26U, C27G, A29U, U30C
# DNA 1: CAATCTGAATTCCGGTCTCCC
# DNA 2: TGGTGGCTACGACGGGATT
# B12: AUACCAU (DNA:RNA)
# RNA: B1 RNA with C25A, G26U, C30A, A31U
# DNA 1: CAATCTGAATTCCGGTCTCCC
# DNA 2: TGGTGGCTACGACGGGATT
# B13: AAAUGAG (DNA:RNA)
# RNA: B9 RNA with U25A, C27A, G28U, A29G, U30A
# DNA 1: CAATCTGAATTCCGGTCTCCC
# DNA 2: TGGTGGCTACGACGGGATT
# B14: ACAUACU (DNA:RNA)
# RNA: B1 RNA with C25A, G26C, C28U, C29A, A31U
# DNA 1: CAATCTGAATTCCGGTCTCCC
# DNA 2: TGGTGGCTACGACGGGATT
# B15: UGCCCUU (DNA:RNA)
# RNA: B1 RNA with C25U, A27C, C30U, A31U
# DNA 1: CAATCTGAATTCCGGTCTCCC
# DNA 2: TGGTGGCTACGACGGGATT
# B16: AUGUUAU (DNA:RNA)
# RNA: GGGAGACCGGAAUUCAGAUUGUCCAUGUUAUUUAAAUCCCGUCGUAGCCACCA
# DNA 1: CAATCTGAATTCCGGTCTCCC
# DNA 2: TGGTGGCTACGACGGGATT
# B17: CUAGAGA (DNA:RNA)
# RNA: B1 RNA with G26U, C28G, C29A, C30G
# DNA 1: CAATCTGAATTCCGGTCTCCC
# DNA 2: TGGTGGCTACGACGGGATT
# B18: ACGAUUC (DNA:RNA)
# RNA: B16 RNA with U26C, U28A, A30U, U31C
# DNA 1: CAATCTGAATTCCGGTCTCCC
# DNA 2: TGGTGGCTACGACGGGATT
# B19: UGCUGUA (DNA:RNA)
# RNA: B9 RNA with A26G, G28U, A29G, G31A
# DNA 1: CAATCTGAATTCCGGTCTCCC
# DNA 2: TGGTGGCTACGACGGGATT
# B20: UUCACAC (DNA:RNA)
# RNA: B16 RNA with A25U, G27C, U28A, U29C, U31C
# DNA 1: CAATCTGAATTCCGGTCTCCC
# DNA 2: TGGTGGCTACGACGGGATT
# B21: GACCACA (DNA:RNA)
# RNA: B1 RNA with C25G, G26A, A27C, C29A
# DNA 1: CAATCTGAATTCCGGTCTCCC
# DNA 2: TGGTGGCTACGACGGGATT
# B22: GGCGGAA (DNA:RNA)
# RNA: B1 RNA with C25G, A27C, C28G, C29G, C30A
# DNA 1: CAATCTGAATTCCGGTCTCCC
# DNA 2: TGGTGGCTACGACGGGATT
# B23: UCGCCAA (DNA:RNA)
# RNA: B1 RNA with C25U, G26C, A27G, C30A
# DNA 1: CAATCTGAATTCCGGTCTCCC
# DNA 2: TGGTGGCTACGACGGGATT
# B24: UAAGUCC (DNA:RNA)
# RNA: B9 RNA with C27A, A29U, U30C, G31C
# DNA 1: CAATCTGAATTCCGGTCTCCC
# DNA 2: TGGTGGCTACGACGGGATT
# B25: GCGGUAU (DNA:RNA)
# RNA: B16 RNA with A25G, U26C, U28G
# DNA 1: CAATCTGAATTCCGGTCTCCC
# DNA 2: TGGTGGCTACGACGGGATT
# B26: GCCAAAU (DNA:RNA)
# RNA: B16 RNA with A25G, U26C, G27C, U28A, U29A
# DNA 1: CAATCTGAATTCCGGTCTCCC
# DNA 2: TGGTGGCTACGACGGGATT
# B27: CUCUUCA (DNA:RNA)
# RNA: B16 RNA with A25C, G27C, A30C, U31A
# DNA 1: CAATCTGAATTCCGGTCTCCC
# DNA 2: TGGTGGCTACGACGGGATT
# B28: GUAAAAU (DNA:RNA)
# RNA: B16 RNA with A25G, G27A, U28A, U29A
# DNA 1: CAATCTGAATTCCGGTCTCCC
# DNA 2: TGGTGGCTACGACGGGATT
# B29: UGCCGGG (DNA:RNA)
# RNA: B9 RNA with A26G, G28C, A29G, U30G
# DNA 1: CAATCTGAATTCCGGTCTCCC
# DNA 2: TGGTGGCTACGACGGGATT
# B30: AUGAGCA (DNA:RNA)
# RNA: B16 RNA with U28A, U29G, A30C, U31A
# DNA 1: CAATCTGAATTCCGGTCTCCC
# DNA 2: TGGTGGCTACGACGGGATT
# B31: AGCACUC (DNA:RNA)
# RNA: B1 RNA with C25A, A27C, C28A, C30U, A31C
# DNA 1: CAATCTGAATTCCGGTCTCCC
# DNA 2: TGGTGGCTACGACGGGATT
# Biological target: T1, RBFOX1 RRM
# Experiment: EMSA; HiTS-Eq, 1 nM pool, 10 min; buffer printed only for the single-RNA assays: 10 mM Tris pH 7.5, 150 mM NaCl, 3.4 mM EDTA, 0.001% NP-40, 30 C
# Conditions: tags: His6 N-terminal (pET28a); label: 5' 32P
# How it was run: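 A pool of RNA with 7 randomized nucleotides, 5′-radiolabelled and with DNA-annealed flanks, was equilibrated at 1 nM for 10 min in 50 µL with purified RbFox RRM, wild type or mutant, across increasing protein concentrations. Free RNA was separated by 8% native PAGE, excised, reverse-transcribed, barcoded by PCR and sequenced. Relative association constants were obtained from read-count changes of each RNA species versus the control reaction and normalised to the cognate motif.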
row,Binder,binding signal
1,B1,0.00088 KA relative to UGCAUGU
2,B2,0.00751 KA relative to UGCAUGU
3,B3,0.0119 KA relative to UGCAUGU
4,B4,0.00253 KA relative to UGCAUGU
5,B5,0.011 KA relative to UGCAUGU
6,B6,0.0123 KA relative to UGCAUGU
7,B7,0.00894 KA relative to UGCAUGU
8,B8,0.0131 KA relative to UGCAUGU
9,B9,0.0142 KA relative to UGCAUGU
10,B10,0.0138 KA relative to UGCAUGU
11,B11,0.02 KA relative to UGCAUGU
12,B12,0.000497 KA relative to UGCAUGU
13,B13,0.00871 KA relative to UGCAUGU
14,B14,0.001 KA relative to UGCAUGU
15,B15,0.00933 KA relative to UGCAUGU
16,B16,0.00626 KA relative to UGCAUGU

row,Binder,binding signal
1,B17,0.0094 KA relative to UGCAUGU
2,B18,0.00506 KA relative to UGCAUGU
3,B19,0.0167 KA relative to UGCAUGU
4,B20,0.00289 KA relative to UGCAUGU
5,B21,0.00241 KA relative to UGCAUGU
6,B22,0.0221 KA relative to UGCAUGU
7,B23,0.00522 KA relative to UGCAUGU
8,B24,0.0101 KA relative to UGCAUGU
9,B25,0.0136 KA relative to UGCAUGU
10,B26,0.00333 KA relative to UGCAUGU
11,B27,0.00342 KA relative to UGCAUGU
12,B28,0.00108 KA relative to UGCAUGU
13,B29,0.0203 KA relative to UGCAUGU
14,B30,0.0116 KA relative to UGCAUGU
15,B31,0.00586 KA relative to UGCAUGU
